The results in this text go back to paper PMC11905140.

No constants are given. Whether binding was seen depends on the method and setting. In cells and extracts the contact can be indirect.

Experiment [1] addresses ZNF217 (zinc finger protein 217), endogenous (human (endogenous in KOPN-8 and SUP-B15)), O75362. Description: co-IP; endogenous co-IP: anti-ZNF217 IP (IgG control) from RIPA lysates of KOPN-8 and SUP-B15 cells; Protein A/G magnetic beads, overnight at 4 °C; wash 10 mM Tris-HCl pH 7.5, 1 mM EDTA, 150 mM NaCl, 1% Triton X-100, 0.2 mM sodium orthovanadate; Western blot. The conditions noted are these: remark: other sources report otherwise.

In experiment [2] the target is Flag-tagged ZNF217 (zinc finger protein 217) (human), O75362. Put plainly: co-IP; exogenous co-IP: anti-Flag IP from RIPA lysates of KOPN-8 and SUP-B15 cells with ectopic Flag-tagged ZNF217 (or ZNF217 1-272) or an empty vector; Protein A/G magnetic beads, overnight at 4 °C; wash 10 mM Tris-HCl pH 7.5, 1 mM EDTA, 150 mM NaCl, 1% Triton X-100, 0.2 mM sodium orthovanadate; Western blot. As to conditions: remark: other sources report otherwise. (In general: In western blotting, separated proteins are transferred to a membrane and probed.)

Experiment [3] deals with Flag-tagged ZNF217 (zinc finger protein 217) (human) (UniProt O75362). The description is as above.
Experiment [4] deals with METTL3 (human (endogenous in KOPN-8 and SUP-B15)), Q86U44. Description: co-IP; reciprocal co-IP: IP of the partner (anti-LSD1 is the only partner antibody listed for co-IP) from RIPA lysates of B-ALL cells (KOPN-8 and SUP-B15 in Figure 4C; KOPN-8 in Figure S4D); Protein A/G magnetic beads, overnight at 4 °C; Western blot. As to conditions: remark: other sources report otherwise.

B1: YTHDF2, Q9Y5A9 1-579 (protein)
chain: MSASSLLEQRPKGQGNKVQNGSVHQKDGLNDDDFEPYLSPQARPNNAYTAMSDSYLPSYYSPSIGFSYSLGEAAWSTGGDTAMPYLTSYGQLSNGEPHFLPDAMFGQPGALGSTPFLGQHGFNFFPSGIDFSAWGNNSSQGQSTQSSGYSSNYAYAPSSLGGAMIDGQSAFANETLNKAPGMNTIDQGMAALKLGSTEVASNVPKVVGSAVGSGSITSNIVASNSLPPATIAPPKPASWADIASKPAKQQPKLKTKNGIAGSSLPPPPIKHNMDIGTWDNKGPVAKAPSQALVQNIGQPTQGSPQPVGQQANNSPPVAQASVGQQTQPLPPPPPQPAQLSVQQQAAQPTRWVAPRNRGSGFGHNGVDGNGVGQSQAGSGSTPSEPHPVLEKLRSINNYNPKDFDWNLKHGRVFIIKSYSEDDIHRSIKYNIWCSTEHGNKRLDAAYRSMNGKGPVYLLFSVNGSGHFCGVAEMKSAVDYNTCAGVWSQDKWKGRFDVRWIFVKDVPNSQLRHIRLENNENKPVTNSRDTQEVPLEKAKQVLKIIASYKHTTSIFDDFSHYEKRQEEEESVKKERQGRGK
Turning to B1, the binding result in experiment [1] and in experiment [2] was “no binding” throughout.

B2: METTL16 (protein, UniProt Q86W50 1-562)
chain: MALSKSMHARNRYKDKPPDFAYLASKYPDFKQHVQINLNGRVSLNFKDPEAVRALTCTLLREDFGLSIDIPLERLIPTVPLRLNYIHWVEDLIGHQDSDKSTLRRGIDIGTGASCIYPLLGATLNGWYFLATEVDDMCFNYAKKNVEQNNLSDLIKVVKVPQKTLLMDALKEESEIIYDFCMCNPPFFANQLEAKGVNSRNPRRPPPSSVNTGGITEIMAEGGELEFVKRIIHDSLQLKKRLRWYSCMLGKKCSLAPLKEELRIQGVPKVTYTEFCQGRTMRWALAWSFYDDVTVPSPPSKRRKLEKPRKPITFVVLASVMKELSLKASPLRSETAEGIVVVTTWIEKILTDLKVQHKRVPCGKEEVSLFLTAIENSWIHLRRKKRERVRQLREVPRAPEDVIQALEEKKPTPKESGNSQELARGPQERTPCGPALREGEAAAVEGPCPSQESLSQEENPEPTEDERSEEKGGVEVLESCQGSSNGAQDQEASEQFGSPVAERGKRLPGVAGQYLFKCLINVKKEVDDALVEMHWVEGQNRDLMNQLCTYIRNQIFRLVAVN
For the molecule B2, the binding result in experiment [3] was “no binding”.

B3: METTL14 (protein, UniProt Q9HCE5 1-456)
chain: MDSRLQEIRERQKLRRQLLAQQLGAESADSIGAVLNSKDEQREIAETRETCRASYDTSAPNAKRKYLDEGETDEDKMEEYKDELEMQQDEENLPYEEEIYKDSSTFLKGTQSLNPHNDYCQHFVDTGHRPQNFIRDVGLADRFEEYPKLRELIRLKDELIAKSNTPPMYLQADIEAFDIRELTPKFDVILLEPPLEEYYRETGITANEKCWTWDDIMKLEIDEIAAPRSFIFLWCGSGEGLDLGRVCLRKWGYRRCEDICWIKTNKNNPGKTKTLDPKAVFQRTKEHCLMGIKGTVKRSTDGDFIHANVDIDLIITEEPEIGNIEKPVEIFHIIEHFCLGRRRLHLFGRDSTIRPGWLTVGPTLTNSNYNAETYASYFSAPNSYLTGCTEEIERLRPKSPPPKSKSDRGGGAPRGGGRGGTSAGRGRERNRSNFRGERGGFRGGRGGAHRGGFPPR
Consider B3, for which the binding result in experiment [3] is recorded as “no binding”.

B4: ZNF217 (zinc finger protein 217), endogenous, O75362 1-1048 (protein)
chain: MQSKVTGNMPTQSLLMYMDGPEVIGSSLGSPMEMEDALSMKGTAVVPFRATQEKNVIQIEGYMPLDCMFCSQTFTHSEDLNKHVLMQHRPTLCEPAVLRVEAEYLSPLDKSQVRTEPPKEKNCKENEFSCEVCGQTFRVAFDVEIHMRTHKDSFTYGCNMCGRRFKEPWFLKNHMRTHNGKSGARSKLQQGLESSPATINEVVQVHAAESISSPYKICMVCGFLFPNKESLIEHRKVHTKKTAFGTSSAQTDSPQGGMPSSREDFLQLFNLRPKSHPETGKKPVRCIPQLDPFTTFQAWQLATKGKVAICQEVKESGQEGSTDNDDSSSEKELGETNKGSCAGLSQEKEKCKHSHGEAPSVDADPKLPSSKEKPTHCSECGKAFRTYHQLVLHSRVHKKDRRAGAESPTMSVDGRQPGTCSPDLAAPLDENGAVDRGEGGSEDGSEDGLPEGIHLDKNDDGGKIKHLTSSRECSYCGKFFRSNYYLNIHLRTHTGEKPYKCEFCEYAAAQKTSLRYHLERHHKEKQTDVAAEVKNDGKNQDTEDALLTADSAQTKNLKRFFDGAKDVTGSPPAKQLKEMPSVFQNVLGSAVLSPAHKDTQDFHKNAADDSADKVNKNPTPAYLDLLKKRSAVETQANNLICRTKADVTPPPDGSTTHNLEVSPKEKQTETAADCRYRPSVDCHEKPLNLSVGALHNCPAISLSKSLIPSITCPFCTFKTFYPEVLMMHQRLEHKYNPDVHKNCRNKSLLRSRRTGCPPALLGKDVPPLSSFCKPKPKSAFPAQSKSLPSAKGKQSPPGPGKAPLTSGIDSSTLAPSNLKSHRPQQNVGVQGAATRQQQSEMFPKTSVSPAPDKTKRPETKLKPLPVAPSQPTLGSSNINGSIDYPAKNDSPWAPPGRDYFCNRSASNTAAEFGEPLPKRLKSSVVALDVDQPGANYRRGYDLPKYHMVRGITSLLPQDCVYPSQALPPKPRFLSSSEVDSPNVLTVQKPYGGSGPLYTCVPAGSPASSSTLEGKRPVSYQHLSNSMAQKRNYENFIGNAHYRPNDKKT
Turning to B4, in experiment [4], the binding entry is “no binding”.
